From the supplement of paper PMC8813932
Counter-ions that a name gives are not always drawn. ± gives the standard deviation of the averaged measurements. This is one part of the list. Many values rest on one well or one pass, so single values are uncertain.

Assays:
Assay in all cases: log2 surviving fraction relative to plate median (drug vs vehicle, or drug+dl922-947 vs dl922-947 alone); ovarian cancer lines: OVCAR4 is platinum-sensitive while Ov4Cis resists cisplatin and Ov4Carbo carboplatin; higher = more cell survival
Details in all cases: compound concentration: 10 uM, 192 h
OVCAR4 = system: OVCAR4
Ov4Carbo = system: Ov4Carbo
Ov4Cis = system: Ov4Cis
[1] = dl922-947 oncolytic adenovirus co-treatment: MOI 10
[2] = dl922-947 oncolytic adenovirus co-treatment: none

Row | SMILES | log2 surviving fraction (OVCAR4; [1]) | log2 surviving fraction (OVCAR4; [2]) | log2 surviving fraction (Ov4Carbo; [1]) | log2 surviving fraction (Ov4Carbo; [2]) | log2 surviving fraction (Ov4Cis; [1]) | log2 surviving fraction (Ov4Cis; [2])
1 | CC(O)(P(=O)(O)O)P(=O)(O)O [Etidronate (Didronel)] | 0.177 ± 0.51 | -0.277 ± 0.74 | 0.241 | 0.476 | 0.042 | -0.0282
2 | Nc1nc(Cl)nc2c1ncn2[C@@H]1O[C@H](CO)[C@@H](O)[C@@H]1F [Clofarabine] | -3.63 ± 0.87 | -3.49 ± 1.6 | -3.84 | -0.28 | -5.95 | -8.56
3 | Cc1cc(-n2c(=O)[nH]c(=O)n(C)c2=O)ccc1Oc1ccc(SC(F)(F)F)cc1 [toltrazuril] | 0.796 ± 0.086 | 0.742 ± 1.1 | 0.605 | 0.187 | 1.18 | 0.528
4 | CC(C)c1nc(CN(C)C(=O)N[C@@H](CCN2CCOCC2)C(=O)N[C@H](CC[C@H](Cc2ccccc2)NC(=O)OCc2cncs2)Cc2ccccc2)cs1 [Cobicistat (GS-9350)] | -0.036 ± 0.14 | -2.32 ± 1.4 | 0.378 | -4.25 | -0.249 | -2.54
5 | Cc1nc(Nc2ncc(C(=O)Nc3c(C)cccc3Cl)s2)cc(N2CCN(CCO)CC2)n1 | -2.8 ± 1.3 | -7.26 ± 2.2 | -5.04 | -11.9 | -1.74 | -4.18
6 | C[C@@H]1[C@H](O)[C@@H](C)/C=C/C=C/C=C/C=C/C=C/C=C/C=C/[C@H](O[C@@H]2O[C@H](C)[C@@H](O)[C@H](N)[C@@H]2O)C[C@@H]2O[C@](O)(C[C@@H](O)C[C@@H](O)[C@H](O)CC[C@@H](O)C[C@@H](O)CC(=O)O[C@H]1C)C[C@H](O)[C@H]2C(=O)O [Amphotericin B (Abelcet)] | -1.02 ± 1.1 | -0.0423 ± 0.48 | 0.132 | 0.146 | -0.346 | -0.085
7 | CCOC(=O)[C@H](CCc1ccccc1)N[C@@H](C)C(=O)N1C(=O)N(C)C[C@H]1C(=O)O [Imidapril (Tanatril)] | 0.296 ± 0.8 | 0.0463 ± 0.064 | -0.749 | 0.623 | -0.189 | -0.00176
8 | Clc1ccc(COC(Cn2ccnc2)c2ccc(Cl)cc2Cl)cc1 (stereo unspecified) [Econazole nitrate (Spectazole)] | -1.85 ± 0.077 | -2.97 ± 0.048 | -1.59 | -4.44 | -2.03 | -1.54
9 | CCC(NC(C)C)C(O)c1ccc(O)c(O)c1 (stereo unspecified) [Isoetharine Mesylate] | 0.154 ± 0.38 | 0.207 ± 0.68 | -0.338 | 0.415 | -0.353 | 0.267
10 | CC(=O)Nc1cc([As](=O)(O)O)ccc1O [Acetarsone] | 0.531 ± 0.097 | 0.968 ± 2 | 0.0677 | 0.331 | -0.0541 | 0.116
11 | C[C@@H]1C[C@H]2[C@@H]3CCC4=CC(=O)C=C[C@]4(C)[C@@]3(Cl)[C@@H](O)C[C@]2(C)[C@@]1(OC(=O)c1ccco1)C(=O)CCl [Mometasone furoate] | 0.81 ± 0.67 | -1.12 ± 0.73 | -0.188 | -1.53 | 1.55 | -1.43
12 | O=C(NCCN1CCOCC1)c1ccc(Cl)cc1 [Moclobemide] | -0.332 ± 0.48 | -0.697 ± 0.29 | -0.317 | -0.738 | 0.353 | -0.39
13 | COc1ccc(-n2nc(C(N)=O)c3c2C(=O)N(c2ccc(N4CCCCC4=O)cc2)CC3)cc1 [Apixaban] | -0.158 ± 0.22 | -0.46 ± 0.65 | -0.0495 | -0.444 | -0.425 | -0.717
14 | CC(C)C[C@H](NC(=O)[C@H](Cc1ccccc1)NC(=O)c1cnccn1)B(O)O [Bortezomib (Velcade)] | -10.2 ± 0.76 | -12.5 ± 9.9 | -9.67 | -15.3 | -10.9 | -17.5
15 | CN1CCN(c2c(F)cc3c(=O)c(C(=O)O)cn4c3c2OCN4C)CC1 [Marbofloxacin] | 1.49 ± 0.73 | 0.496 ± 0.53 | 0.857 | 1.25 | -0.352 | 0.798
16 | CCCc1ncc(C[n+]2ccccc2C)c(N)n1 [Amprolium HCl] | 0.435 ± 0.1 | 0.443 ± 0.59 | 0.57 | -0.323 | 0.232 | 1.28
17 | C#C[C@]1(O)CC[C@H]2[C@@H]3CCc4cc(OC)ccc4[C@H]3CC[C@@]21C [Mestranol] | -0.237 ± 0.4 | -0.707 ± 0.83 | 1.09 | -0.0457 | -0.0756 | -0.948
18 | O=C(O)c1cc(/N=N/c2ccc(S(=O)(=O)Nc3ccccn3)cc2)ccc1O [Sulfasalazine (Azulfidine)] | -0.366 ± 0.37 | -0.612 ± 0.12 | -0.301 | -0.0619 | -1.47 | -0.133
19 | CNC(=O)Oc1ccc2c(c1)[C@]1(C)CCN(C)[C@@H]1N2C [Physostigmine Hemisulfate Salt] | -0.363 ± 0.52 | -0.17 ± 0.26 | 0.688 | 1.54 | -0.696 | 0.478
20 | CN1C(C(=O)Nc2ccccn2)=C(O)c2ccccc2S1(=O)=O [Piroxicam (Feldene)] | -0.161 ± 0.027 | 0.703 ± 0.33 | -0.125 | 0.763 | 0.211 | -0.0485
21 | O=C(O)/C=C/c1ccc(Cn2ccnc2)cc1 [Ozagrel HCl] | 0.881 ± 0.7 | 1.04 ± 1 | 0.146 | 0.223 | -0.966 | 0.608
22 | Cc1onc(-c2c(Cl)cccc2Cl)c1C(=O)N[C@@H]1C(=O)N2[C@@H]1SC(C)(C)[C@@H]2C(=O)O [Dicloxacillin Sodium] | 0.7 ± 0.3 | 1.12 ± 0.41 | -0.465 | 0.00263 | 0.526 | 1.06
23 | C=C1[C@H](CO)[C@@H](O)C[C@@H]1n1cnc2c(=O)[nH]c(N)nc21 [Entecavir hydrate] | 0.348 ± 0.4 | 1.72 ± 1.5 | -0.753 | 2.93 | 0.0631 | 2.04

Row | SMILES | log2 surviving fraction (OVCAR4; [1]) | log2 surviving fraction (OVCAR4; [2]) | log2 surviving fraction (Ov4Carbo; [1]) | log2 surviving fraction (Ov4Carbo; [2]) | log2 surviving fraction (Ov4Cis; [1]) | log2 surviving fraction (Ov4Cis; [2])
24 | O=c1[nH]c(=O)n([C@H]2C[C@H](O)[C@@H](CO)O2)cc1F [Floxuridine] | -1.54 ± 1.8 | -2.47 ± 0.84 | -0.936 | -6.53 | -0.275 | -0.468
25 | Nc1ccn([C@@H]2O[C@H](CO)[C@@H](O)C2(F)F)c(=O)n1 [Gemcitabine (Gemzar)] | -6.26 ± 0.57 | -7.15 ± 2.5 | -6.1 | -10.4 | -5.77 | -8.38
26 | CC(C)NCC(O)c1ccc(NS(C)(=O)=O)cc1 (stereo unspecified) [Sotalol (Betapace)] | 0.159 ± 0.11 | -0.225 ± 0.47 | -0.261 | -0.251 | 0.324 | -0.131
27 | CN1C(C(=O)Nc2ccccn2)=C(O)c2sc(Cl)cc2S1(=O)=O [Lornoxicam (Xefo)] | -0.389 ± 0.98 | 0.251 ± 0.52 | 0.22 | 0.0548 | 0.0069 | -0.622
28 | Nc1c2ccccc2nc2ccccc12 [9-Aminoacridine] | -8.56 ± 1.1 | -7.95 ± 12 | -6.33 | -11.4 | -3.59 | -11.4
29 | NS(=O)(=O)c1cc2c(cc1Cl)N=C(CSCc1ccccc1)NS2(=O)=O [Benzthiazide] | 0.316 ± 0.6 | 0.344 ± 0.43 | 0.664 | 0.213 | 0.0924 | 0.707
30 | COC(=O)C1=CO[C@@H](O[C@@H]2O[C@H](CO)[C@@H](O)[C@H](O)[C@H]2O)[C@@H]2C(CO)=CC[C@H]12 [Geniposide] | 0.295 ± 0.43 | 0.925 ± 0.63 | -0.094 | 0.485 | 0.371 | 0.944
31 | C[C@H]1C[C@@H]2[C@H]([C@@H](O)C[C@@]3(C)[C@H]2CC[C@]3(O)C(=O)CO)[C@@]2(C)C=CC(=O)C=C12 [Methylprednisolone] | 0.388 ± 0.98 | -0.233 ± 0.11 | 1.5 | 1.08 | 0.679 | -1.14
32 | CN1CCC[C@@H]1CCO[C@](C)(c1ccccc1)c1ccc(Cl)cc1 [Clemastine Fumarate] | -2.4 ± 0.78 | -1.86 ± 0.61 | -2.09 | -4.03 | -3.78 | -4.03
33 | C[N+]1(C)CCCC(OC(=O)C(O)(c2ccccc2)c2ccccc2)C1 (stereo unspecified) [Mepenzolate Bromide] | -0.0709 ± 0.55 | 0.428 ± 0.45 | -1.04 | -0.172 | 0.185 | -0.154
34 | O=C(O)CCCC[C@@H]1SC[C@@H]2NC(=O)N[C@@H]21 [Biotin (Vitamin B7)] | -0.0328 ± 0.38 | -0.288 ± 0.53 | 0.258 | 0.791 | 0.259 | 0.863
35 | CO/N=C(\C(=O)N[C@@H]1C(=O)N2C(C(=O)O)=C(CSC(=O)c3ccco3)CS[C@H]12)c1csc(N)n1 [Ceftiofur hydrochloride] | -0.611 ± 0.14 | 0.137 ± 0.2 | 0.0419 | -0.945 | 0.206 | -0.208
36 | C[C@]12CC[C@H](O)C[C@H]1CC[C@@H]1[C@@H]2C[C@@H](O)[C@]2(C)[C@@H](C3=CC(=O)OC3)CC[C@]12O [Digoxigenin] | -9.37 ± 0.23 | -11.2 ± 6.6 | -8.51 | -11.7 | -8.47 | -12.1
37 | Cn1c(=O)c2c(ncn2CC2OCCO2)n(C)c1=O [Doxofylline] | 0.561 ± 1 | -0.621 ± 0.86 | -0.215 | 0.608 | -0.514 | -0.618
38 | CC(C)N(CCC(C(N)=O)(c1ccccc1)c1ccccn1)C(C)C (stereo unspecified) [Disopyramide Phosphate] | 0.471 ± 0.1 | 0.257 ± 0.56 | 0.53 | -0.149 | 0.366 | 0.439
39 | C[C@@H](O[C@H]1OCCN(Cc2n[nH]c(=O)[nH]2)[C@H]1c1ccc(F)cc1)c1cc(C(F)(F)F)cc(C(F)(F)F)c1 [Aprepitant (MK-0869)] | -0.447 ± 0.26 | 0.696 ± 2.9 | -0.388 | -5.63 | -1.3 | -1.52
40 | NCCCCCC(=O)O [Aminocaproic acid (Amicar)] | -0.205 ± 0.78 | 0.191 ± 0.095 | 0.302 | -0.374 | -0.271 | 0.229
41 | N=C(N)Nc1ccc(C(=O)Oc2ccc3cc(C(=N)N)ccc3c2)cc1 [Nafamostat mesylate] | -0.34 ± 0.13 | -0.0251 ± 0.76 | 0.181 | 0.0404 | -0.0433 | 0.0323
42 | COc1cc2c(cc1OC)C(=O)C(CC1CCN(Cc3ccccc3)CC1)C2 (stereo unspecified) [Donepezil HCl (Aricept)] | 0.108 ± 0.12 | -0.0493 ± 0.12 | -0.273 | 0.724 | -0.453 | 0.294
43 | Cc1cc(=O)n(-c2ccccc2)n1C [Antipyrine] | 0.625 ± 0.21 | 0.418 ± 0.038 | 0.0122 | 0.26 | 0.348 | 0.427
44 | CC(=O)N1CCN(c2ccc(OCC3COC(Cn4ccnc4)(c4ccc(Cl)cc4Cl)O3)cc2)CC1 (stereo unspecified) [Ketoconazole] | -0.341 ± 0.19 | -1.66 ± 0.7 | -0.366 | -1.52 | -0.452 | -0.468
45 | c1cc(CN2CCCNCCNCCCNCC2)ccc1CN1CCCNCCNCCCNCC1 [Plerixafor (AMD3100)] | 0.707 ± 0.81 | -0.0791 ± 1.1 | 0.494 | -0.219 | 0.345 | -0.14
46 | O.O=[Si]=O.O=[Si]=O.O=[Si]=O.O=[Si]=O.[O]=[Mg].[O]=[Mg].[O]=[Mg] | 0.435 ± 0.75 | 0.167 ± 1.4 | 0.076 | 0.888 | 0.044 | 0.0224
